The other results are listed elsewhere or left out. One pool of 16,384 single-stranded DNAs met each Rep nickase domain in vitro (1 h at 37 °C, 3 µM enzyme); the outer parts of the 90-letter strands are left off. The score is log2 (uncut reads / reads without enzyme); the lower, the more was cut; hits are not called. Shares of all reads are compared, so uncut sequences can rise above 0 when many others are cut.
Columns and labels:
Assay in all cases: uncleaved DNA left, log2 of reads against the no-enzyme library (log2 ratio); higher = less cleavage (more negative = more Rep cleavage of the k-mer); sequences stand for … in CTCGTCCG…ACCGGAGA
[1] = test system: T1, Rep nickase domain of Muscovy duck circovirus
T1 sequence (residues 1-111, tag not shown): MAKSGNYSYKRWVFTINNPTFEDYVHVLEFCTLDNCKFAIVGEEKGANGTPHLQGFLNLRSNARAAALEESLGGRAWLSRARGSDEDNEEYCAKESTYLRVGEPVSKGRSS
Experimental: (§1)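 A pool of 90-nt single-stranded DNAs with seven random bases just before the constant AC of the nick site (name = the seven bases) was cut by 3 µM recombinant His6-SUMO-tagged Rep nickase domain (300 nM DNA, 50 mM HEPES pH 8.0, 50 mM NaCl, 1 mM MnCl2, 1 h, 37 °C, three replicates). Uncut DNA was amplified and sequenced.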

[2] = test system: T2, Rep nickase domain of banana bunchy top virus
T2 sequence (residues 1-94, tag not shown): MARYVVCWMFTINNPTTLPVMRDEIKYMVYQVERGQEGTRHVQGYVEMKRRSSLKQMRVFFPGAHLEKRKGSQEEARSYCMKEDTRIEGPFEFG
Experimental: as §1

[3] = test system: T3, Rep nickase domain of cabbage leaf curl virus
T3 sequence (residues 1-116, tag not shown): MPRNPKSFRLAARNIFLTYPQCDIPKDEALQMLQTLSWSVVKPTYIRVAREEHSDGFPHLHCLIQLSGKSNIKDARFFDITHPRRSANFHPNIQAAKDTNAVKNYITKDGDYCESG
Experimental: as §1

[4] = test system: T4, Rep nickase domain of chickpea chlorotic dwarf virus
T4 sequence (residues 1-124, tag not shown): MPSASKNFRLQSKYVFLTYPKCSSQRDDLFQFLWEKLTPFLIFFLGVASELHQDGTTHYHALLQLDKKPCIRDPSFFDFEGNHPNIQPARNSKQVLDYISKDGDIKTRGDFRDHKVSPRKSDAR
Experimental: as §1

[5] = test system: T5, Rep nickase domain of faba bean necrotic yellows virus
T5 sequence (residues 1-98, tag not shown): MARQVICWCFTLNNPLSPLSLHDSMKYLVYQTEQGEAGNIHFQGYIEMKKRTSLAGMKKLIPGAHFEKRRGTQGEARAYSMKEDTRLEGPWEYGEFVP
Experimental: as §1

[6] = test system: T6, Rep nickase domain of maize striate mosaic virus
T6 sequence (residues 1-117, tag not shown): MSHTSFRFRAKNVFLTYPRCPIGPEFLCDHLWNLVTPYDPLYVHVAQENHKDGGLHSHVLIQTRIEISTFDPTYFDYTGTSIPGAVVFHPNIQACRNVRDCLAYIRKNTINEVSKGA
Experimental: as §1

[7] = test system: T7, Rep nickase domain of porcine circovirus 2
T7 sequence (residues 2-116, tag not shown): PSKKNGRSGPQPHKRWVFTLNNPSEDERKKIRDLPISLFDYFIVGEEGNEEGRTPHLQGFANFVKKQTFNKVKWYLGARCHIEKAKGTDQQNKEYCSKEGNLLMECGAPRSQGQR
Experimental: as §1

[8] = test system: T8, Rep nickase domain of tomato yellow leaf curl virus
T8 sequence (residues 1-136, tag not shown): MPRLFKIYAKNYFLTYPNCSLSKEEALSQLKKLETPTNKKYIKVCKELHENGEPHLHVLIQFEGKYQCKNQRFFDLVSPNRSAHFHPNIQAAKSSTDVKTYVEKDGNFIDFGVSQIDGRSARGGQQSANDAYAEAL
Experimental: as §1

[9] = test system: T9, Rep nickase domain of wheat dwarf virus
T9 sequence (residues 1-137, tag not shown): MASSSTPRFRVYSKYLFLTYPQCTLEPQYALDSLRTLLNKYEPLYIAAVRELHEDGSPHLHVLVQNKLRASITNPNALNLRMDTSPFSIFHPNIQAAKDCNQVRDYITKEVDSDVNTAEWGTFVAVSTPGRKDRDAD
Experimental: as §1

Row | Sequence | uncleaved DNA left (log2) [1] | uncleaved DNA left (log2) [2] | uncleaved DNA left (log2) [3] | uncleaved DNA left (log2) [4] | uncleaved DNA left (log2) [5] | uncleaved DNA left (log2) [6] | uncleaved DNA left (log2) [7] | uncleaved DNA left (log2) [8] | uncleaved DNA left (log2) [9]
1 | CACTCCT | -1.16 | -2.52 | -0.885 | -3.08 | -0.184 | -0.421 | -3.31 | -0.142 | -0.192
2 | ATGATAG | 0.0116 | -0.00548 | -0.824 | -0.402 | -0.0484 | -1.29 | 0.158 | -0.0531 | -0.0562
3 | CCTGCGA | -0.0345 | -0.329 | -0.794 | -0.27 | -0.0493 | -0.833 | -0.108 | -0.183 | -0.183
4 | GGACGGT | -0.0106 | 0.131 | 0.768 | 1.64 | -0.00809 | 2.21 | 0.167 | 0.108 | 0.053
5 | GTTCACT | 0.0649 | 0.0303 | 0.318 | 0.659 | -0.0143 | 1.65 | 0.0121 | 0.0438 | 0.111
6 | ACCAGTT | 0.06 | -0.022 | -0.326 | -1.93 | 0.154 | -1.04 | -0.122 | -0.0701 | -0.0597
7 | GCAATAT | 0.038 | 0.0433 | 0.114 | -0.134 | -0.136 | -0.0835 | -0.0318 | 0.0199 | 0.0635
8 | ATTTTCC | -1.04 | 0.0338 | 0.0499 | -0.386 | 0.0158 | -0.631 | -2.72 | -0.00056 | 0.0253
9 | AAACAGT | -0.0318 | -0.0661 | -0.57 | -2.17 | -0.177 | -0.94 | -0.127 | -0.075 | -0.0781
10 | CTACGGC | -0.0248 | -0.0816 | -0.113 | -0.637 | -0.0734 | -0.551 | -0.0888 | -0.069 | -0.0607
11 | GTTGCAC | 0.0155 | 0.064 | 0.0827 | 0.56 | -0.0188 | 0.215 | 0.011 | 0.0747 | 0.0566
12 | TGGTCTC | -0.00344 | 0.106 | 0.41 | 0.696 | -0.1 | 1.39 | -0.0912 | 0.0341 | 0.104
13 | TGAACGG | 0.11 | 0.123 | 0.565 | 1.66 | 0.0607 | 2.11 | 0.199 | -0.0251 | 0.174
14 | GGACTGT | -0.041 | 0.0172 | 0.55 | 1.59 | 0.0887 | 2.08 | 0.15 | 0.0295 | 0.136
15 | TCCTTAT | -0.296 | -0.183 | 0.0415 | -0.723 | -0.0496 | -0.692 | -2.25 | -0.208 | -0.201
16 | CTAGGGT | -0.079 | 0.00647 | 0.183 | 1.29 | -0.154 | 1.69 | -0.0112 | -0.115 | -0.0877
17 | CCGATGC | 0.0316 | 0.0014 | -0.329 | -0.44 | 0.0322 | -0.878 | 0.194 | 0.0478 | -0.0766
18 | ACTTAGA | 0.0181 | -0.0423 | -0.404 | -0.35 | -0.019 | -1.27 | 0.0667 | -0.059 | -0.0896
19 | GCTTTAT | -0.042 | 0.124 | 0.196 | 0.373 | 0.102 | 0.346 | -0.192 | 0.0311 | -0.00195
20 | ACTTTAT | -0.0871 | -0.0841 | -0.0378 | -1.03 | 0.158 | -0.681 | -0.524 | -0.0407 | 0.055
21 | GATGTGA | -0.0435 | -0.0492 | -0.116 | 0.0239 | -0.0584 | -0.453 | 0.00294 | -0.0545 | -0.0572
22 | ACTGAGA | 0.114 | 0.149 | -0.103 | 0.276 | 0.0467 | -0.616 | 0.176 | 0.194 | 0.178
23 | CGCGTAC | 0.118 | -0.0709 | -0.13 | -0.322 | 0.0688 | -0.339 | -0.0399 | -0.095 | -0.0426
24 | GCTCGGA | -0.0117 | 0.0109 | 0.173 | 0.508 | 0.0386 | 0.254 | 0.276 | -0.0508 | 0.0318
25 | TTCCTAT | 0.176 | 0.131 | 0.384 | -0.629 | 0.143 | 0.00391 | 0.122 | 0.0697 | 0.192
26 | TTTCCTT | -0.0234 | -0.0788 | -0.0252 | -2.16 | -0.0919 | -0.37 | -0.953 | -0.0368 | -0.0386
27 | TGTATTA | -0.251 | -0.0731 | 0.148 | -0.216 | -0.269 | 0.448 | -0.116 | 0.025 | -0.151
28 | GTTCTCG | 0.0199 | 0.0396 | -0.167 | -0.283 | 0.0282 | -0.614 | 0.0617 | -0.0183 | -0.00784
29 | GTTATTC | -0.0415 | 0.141 | 0.304 | 0.891 | 0.0315 | 1.54 | 0.201 | 0.149 | 0.1
30 | TTGCATT | 0.0497 | -0.166 | -0.525 | -1.38 | -0.212 | -1.01 | -0.404 | 0.035 | -0.0467

Reference: the supplement of paper PMC7826260
